According to article PMC9911399, “Two distinct binding modes provide the RNA-binding protein RbFox with extraordinary sequence specificity”:
Where a chain is given by its changes, count along the chain named. This is one part of the list.

T1: RBFOX1 RRM (Homo sapiens, UniProt Q9NWB1 109-208)
T1 sequence: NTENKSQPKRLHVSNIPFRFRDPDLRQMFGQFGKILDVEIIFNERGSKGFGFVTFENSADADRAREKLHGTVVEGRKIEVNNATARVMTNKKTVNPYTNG

B1: CACCGCU (DNA:RNA)
RNA: GGGAGACCGGAAUUCAGAUUGUCCCACCGCUUUAAAUCCCGUCGUAGCCACCA
DNA 1: CAATCTGAATTCCGGTCTCCC
DNA 2: TGGTGGCTACGACGGGATT
B2: UCGGUGA (DNA:RNA)
RNA: GGGAGACCGGAAUUCAGAUUGUCCUCGGUGAUUAAAUCCCGUCGUAGCCACCA
DNA 1: CAATCTGAATTCCGGTCTCCC
DNA 2: TGGTGGCTACGACGGGATT
B3: ACCGUUC (DNA:RNA)
RNA: B2 RNA with U25A, G27C, G30U, A31C
DNA 1: CAATCTGAATTCCGGTCTCCC
DNA 2: TGGTGGCTACGACGGGATT
B4: UACGACU (DNA:RNA)
RNA: B1 RNA with C25U, C28G, G29A
DNA 1: CAATCTGAATTCCGGTCTCCC
DNA 2: TGGTGGCTACGACGGGATT
B5: CCGAGAG (DNA:RNA)
RNA: B1 RNA with A26C, C27G, C28A, C30A, U31G
DNA 1: CAATCTGAATTCCGGTCTCCC
DNA 2: TGGTGGCTACGACGGGATT
B6: CUUGUGC (DNA:RNA)
RNA: B2 RNA with U25C, C26U, G27U, A31C
DNA 1: CAATCTGAATTCCGGTCTCCC
DNA 2: TGGTGGCTACGACGGGATT
B7: AGCUACG (DNA:RNA)
RNA: B1 RNA with C25A, A26G, C28U, G29A, U31G
DNA 1: CAATCTGAATTCCGGTCTCCC
DNA 2: TGGTGGCTACGACGGGATT
B8: GAUGACA (DNA:RNA)
RNA: B1 RNA with C25G, C27U, C28G, G29A, U31A
DNA 1: CAATCTGAATTCCGGTCTCCC
DNA 2: TGGTGGCTACGACGGGATT
B9: AAACGUC (DNA:RNA)
RNA: B1 RNA with C25A, C27A, C30U, U31C
DNA 1: CAATCTGAATTCCGGTCTCCC
DNA 2: TGGTGGCTACGACGGGATT
B10: AUGAAGC (DNA:RNA)
RNA: B2 RNA with U25A, C26U, G28A, U29A, A31C
DNA 1: CAATCTGAATTCCGGTCTCCC
DNA 2: TGGTGGCTACGACGGGATT
B11: UGUACUA (DNA:RNA)
RNA: B2 RNA with C26G, G27U, G28A, U29C, G30U
DNA 1: CAATCTGAATTCCGGTCTCCC
DNA 2: TGGTGGCTACGACGGGATT
B12: AGCAAGU (DNA:RNA)
RNA: B1 RNA with C25A, A26G, C28A, G29A, C30G
DNA 1: CAATCTGAATTCCGGTCTCCC
DNA 2: TGGTGGCTACGACGGGATT
B13: GCGGGUG (DNA:RNA)
RNA: B2 RNA with U25G, U29G, G30U, A31G
DNA 1: CAATCTGAATTCCGGTCTCCC
DNA 2: TGGTGGCTACGACGGGATT
B14: GAGUUCU (DNA:RNA)
RNA: B1 RNA with C25G, C27G, C28U, G29U
DNA 1: CAATCTGAATTCCGGTCTCCC
DNA 2: TGGTGGCTACGACGGGATT
B15: UAUAGUU (DNA:RNA)
RNA: B1 RNA with C25U, C27U, C28A, C30U
DNA 1: CAATCTGAATTCCGGTCTCCC
DNA 2: TGGTGGCTACGACGGGATT
B16: AAUGAAA (DNA:RNA)
RNA: B2 RNA with U25A, C26A, G27U, U29A, G30A
DNA 1: CAATCTGAATTCCGGTCTCCC
DNA 2: TGGTGGCTACGACGGGATT
B17: GGUCGGG (DNA:RNA)
RNA: B1 RNA with C25G, A26G, C27U, C30G, U31G
DNA 1: CAATCTGAATTCCGGTCTCCC
DNA 2: TGGTGGCTACGACGGGATT
B18: CACUGUG (DNA:RNA)
RNA: B1 RNA with C28U, C30U, U31G
DNA 1: CAATCTGAATTCCGGTCTCCC
DNA 2: TGGTGGCTACGACGGGATT
B19: AUUCGAG (DNA:RNA)
RNA: B1 RNA with C25A, A26U, C27U, C30A, U31G
DNA 1: CAATCTGAATTCCGGTCTCCC
DNA 2: TGGTGGCTACGACGGGATT
B20: CUAACGC (DNA:RNA)
RNA: B1 RNA with A26U, C27A, C28A, G29C, C30G, U31C
DNA 1: CAATCTGAATTCCGGTCTCCC
DNA 2: TGGTGGCTACGACGGGATT
B21: GGUCGUG (DNA:RNA)
RNA: B1 RNA with C25G, A26G, C27U, C30U, U31G
DNA 1: CAATCTGAATTCCGGTCTCCC
DNA 2: TGGTGGCTACGACGGGATT
B22: AGUUCCU (DNA:RNA)
RNA: B1 RNA with C25A, A26G, C27U, C28U, G29C
DNA 1: CAATCTGAATTCCGGTCTCCC
DNA 2: TGGTGGCTACGACGGGATT
B23: GCGAGAA (DNA:RNA)
RNA: B2 RNA with U25G, G28A, U29G, G30A
DNA 1: CAATCTGAATTCCGGTCTCCC
DNA 2: TGGTGGCTACGACGGGATT
B24: AGUCUCA (DNA:RNA)
RNA: B1 RNA with C25A, A26G, C27U, G29U, U31A
DNA 1: CAATCTGAATTCCGGTCTCCC
DNA 2: TGGTGGCTACGACGGGATT
B25: CGGUUCC (DNA:RNA)
RNA: B1 RNA with A26G, C27G, C28U, G29U, U31C
DNA 1: CAATCTGAATTCCGGTCTCCC
DNA 2: TGGTGGCTACGACGGGATT
B26: CACUCUA (DNA:RNA)
RNA: B1 RNA with C28U, G29C, C30U, U31A
DNA 1: CAATCTGAATTCCGGTCTCCC
DNA 2: TGGTGGCTACGACGGGATT
B27: CUCCCGC (DNA:RNA)
RNA: B1 RNA with A26U, G29C, C30G, U31C
DNA 1: CAATCTGAATTCCGGTCTCCC
DNA 2: TGGTGGCTACGACGGGATT
B28: UAGGAGA (DNA:RNA)
RNA: B2 RNA with C26A, U29A
DNA 1: CAATCTGAATTCCGGTCTCCC
DNA 2: TGGTGGCTACGACGGGATT
B29: UUCUGAG (DNA:RNA)
RNA: B1 RNA with C25U, A26U, C28U, C30A, U31G
DNA 1: CAATCTGAATTCCGGTCTCCC
DNA 2: TGGTGGCTACGACGGGATT
B30: CUCGAAU (DNA:RNA)
RNA: B1 RNA with A26U, C28G, G29A, C30A
DNA 1: CAATCTGAATTCCGGTCTCCC
DNA 2: TGGTGGCTACGACGGGATT
B31: CUAGUUA (DNA:RNA)
RNA: B2 RNA with U25C, C26U, G27A, G30U
DNA 1: CAATCTGAATTCCGGTCTCCC
DNA 2: TGGTGGCTACGACGGGATT

Biological target: T1, RBFOX1 RRM
Assay: EMSA; HiTS-Eq, 1 nM pool, 10 min; buffer printed only for the single-RNA assays: 10 mM Tris pH 7.5, 150 mM NaCl, 3.4 mM EDTA, 0.001% NP-40, 30 C
Details: tags: His6 N-terminal (pET28a); label: 5' 32P
Outline: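 Purified wild-type or mutant RbFox RRM at increasing concentrations was equilibrated with 1 nM of 5′-radiolabelled RNA carrying 7 randomized nucleotides for 10 min in 50 µL. Unbound RNA was separated by 8% native PAGE and sequenced. Relative association constants came from read-count changes of each RNA species compared with the control reaction, normalised to the cognate motif.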

Compared with B1, B2 is higher in binding signal: 0.00254 KA relative to UGCAUGU for the first, 0.0136 KA relative to UGCAUGU for the second.

First: B3
Second: B4
The binding signal of the first is lower: 0.00437 KA relative to UGCAUGU for the first, 0.00447 KA relative to UGCAUGU for the second.

Compared with B5, B6 is higher in binding signal: 0.0109 KA relative to UGCAUGU for the first, 0.0261 KA relative to UGCAUGU for the second.

First: B7
Second: B8
The binding signal of the first is higher: 0.00807 KA relative to UGCAUGU for the first, 0.00802 KA relative to UGCAUGU for the second.

First: B9
Second: B10
The binding signal of the first is lower: 0.00458 KA relative to UGCAUGU for the first, 0.00713 KA relative to UGCAUGU for the second.

First: B11
Second: B12
The binding signal of the first is lower: 0.0114 KA relative to UGCAUGU for the first, 0.0132 KA relative to UGCAUGU for the second.

First: B13
Second: B14
The binding signal of the first is higher: 0.021 KA relative to UGCAUGU for the first, 0.0146 KA relative to UGCAUGU for the second.

First: B15
Second: B16
The binding signal of the first is higher: 0.00973 KA relative to UGCAUGU for the first, 0.00591 KA relative to UGCAUGU for the second.

Compared with B17, B18 is lower in binding signal: 0.0138 KA relative to UGCAUGU for the first, 0.0112 KA relative to UGCAUGU for the second.

Compared with B19, B20 is lower in binding signal: 0.0104 KA relative to UGCAUGU for the first, 0.00556 KA relative to UGCAUGU for the second.

Compared with B21, B22 is higher in binding signal: 0.00709 KA relative to UGCAUGU for the first, 0.00839 KA relative to UGCAUGU for the second.

First: B23
Second: B24
The binding signal of the first is higher: 0.0152 KA relative to UGCAUGU for the first, 0.00863 KA relative to UGCAUGU for the second.

First: B25
Second: B26
The binding signal of the first is higher: 0.0273 KA relative to UGCAUGU for the first, 0.00266 KA relative to UGCAUGU for the second.

Compared with B27, B28 is lower in binding signal: 0.00937 KA relative to UGCAUGU for the first, 0.00599 KA relative to UGCAUGU for the second.

Compared with B29, B30 is lower in binding signal: 0.0217 KA relative to UGCAUGU for the first, 0.0088 KA relative to UGCAUGU for the second.

For B31, the binding signal was 0.00309 KA relative to UGCAUGU.
